Measurements as given in PubChem BioAssay AID894 (National Center for Advancing Translational Sciences (NCATS), 2007).
The campaign covered roughly 150,000 compounds. About 6,500 (4.3%) were called active. Inconclusive results, whose numbers are uncertain, are shown with a selection of clear calls. The call rests on the fitted dose curve; in most records, active means well fitted inhibition curve with a large enough effect (not every such curve was filed as active); inconclusive means small, poorly fitted or top-dose-only effect, or another doubt; inactive means no such curve, though single readings can be large or run the other way. No potency is given beside an inconclusive call; the fits are too rough.

Biological target: 15-hydroxyprostaglandin dehydrogenase [NAD(+)] (Homo sapiens) (UniProt P15428)
Assay: qHTS Assay for Inhibitors of HPGD (15-Hydroxyprostaglandin Dehydrogenase)
Conditions: purified HPGD, NADH fluorescence kinetic, PGE2 substrate; activity change, negative = inhibition: active compounds read low
Summary of the method: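 NADH formation kinetics: reaction with 30 uM PGE2 and 1 mM NAD+ (final), 20 nM enzyme, Tris-HCl pH 8 with Tween 20, after 15 min compound preincubation at room temperature. Fluorescence change, last versus first of five reads.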
On the % scale 0 is the no-effect control and ±100 the full control effect; potency means the concentration at half of the fitted maximal effect; tags describe the fitted curve by direction and shape.

UniProt P15428, sequence (P15428 whole entry, looked up): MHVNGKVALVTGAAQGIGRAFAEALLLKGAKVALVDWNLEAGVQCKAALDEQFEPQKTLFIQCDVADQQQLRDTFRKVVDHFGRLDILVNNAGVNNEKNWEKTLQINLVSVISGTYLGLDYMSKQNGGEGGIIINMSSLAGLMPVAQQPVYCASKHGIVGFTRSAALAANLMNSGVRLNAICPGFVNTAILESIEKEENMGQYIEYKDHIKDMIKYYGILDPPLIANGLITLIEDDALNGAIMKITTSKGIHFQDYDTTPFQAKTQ

Compound	Potency	activity change, negative = inhibition
Cc1ccc(C2NC(=O)c3ccccc3N2)s1 (stereo not given)	inconclusive [inhibitor, partial curve]	
CC(=O)Nc1ccc(Oc2ccc3nc(C)[nH]c3c2)cc1	inconclusive [inhibitor, partial curve, poor fit]	
Cc1ccc(S(=O)(=O)Nc2nc3ccccc3nc2NCc2ccco2)cc1	inconclusive [inhibitor, partial curve]	
O=C(c1csnn1)N1CCC2(CCCN(Cc3cc(C(F)(F)F)cc(C(F)(F)F)c3)C2)CC1		inactive: -4.36%
CC1CCN(C(c2ccc(N(C)C)cc2)c2nnnn2C(C)(C)C)CC1 (stereo not given)		inactive: -28.6%
COc1cc(CNn2cn[nH]c2=S)cc(Cl)c1OCc1ccc(F)cc1	inconclusive [inhibitor, partial curve]	
N#Cc1c(N)nc2c(c1-c1ccc3c(c1)OCO3)CCc1ccccc1-2	inconclusive [inhibitor, partial curve]	
COc1ccc2nc(NC(=O)c3cc(C)oc3C)sc2c1	inconclusive [inhibitor, full curve, poor fit]	
COc1ccc(CNC(=O)c2cnc3cc(C)ccn3c2=O)cc1	inconclusive [inhibitor, partial curve]	
CCC(C)NC(=O)c1ccc2c(SCC(=O)O)c3c(nc2c1)CCCC3 (stereo not given)	active: 22.4 µM	
Cc1ccc(CN(C)C(=O)c2ccccc2Oc2ccccc2)o1	active: 22.4 µM	
C=CCn1c(SCC(=O)N2CCCC2)nc2cc(C(=O)NCC3CCCO3)ccc2c1=O (stereo not given)	inconclusive [inhibitor, partial curve]	
N#CC1=C(SCC(=O)c2ccccc2)NC2=C(C(=O)CCC2)C1c1ccco1 (stereo not given)	inconclusive [inhibitor, single point]	
C(=N\Nc1nc(-c2ccccc2)cs1)/c1cccs1	inconclusive [inhibitor, single point]	
CC(=O)Nn1c(-c2ccccc2)cc2ccccc21	inconclusive [inhibitor, partial curve]	
COc1ccc2cc(/C=C3\SC(=S)NC3=O)c(N3CCOCC3)nc2c1	active: 20 µM	
O=C(NCc1ccc2c(c1)OCO2)c1cccc(Cl)c1	active: 3.55 µM	
COc1ccccc1NC(=O)N1CCN(c2cc(-c3ccccc3)nc3ncnn23)CC1		inactive: -7.95%
CC[n+]1ccc(C[n+]2ccccc2)c2ccccc21	inconclusive [inhibitor, single point]	
Cc1onc(-c2c(F)cccc2Cl)c1C(=O)NCCCN1CCOCC1		inactive: -2.17%
